Results on 90 molecules are retold here after article PMC4336329 (PLoS ONE, 2015).

In all, about 310,000 compounds went through this assay and about 2,200 (0.71%) showed an effect of 50% or more. Effects have a minus sign here. This is one part of the list.

For this assay, the target named is human ether-à-go-go-related gene (hERG) potassium channel (human, UniProt Q12809). The assay is described as follows: primary screen, population patch clamp on CHO cells stably expressing hERG.
Sequence of human ether-à-go-go-related gene (hERG) potassium channel (Q12809 whole entry, looked up): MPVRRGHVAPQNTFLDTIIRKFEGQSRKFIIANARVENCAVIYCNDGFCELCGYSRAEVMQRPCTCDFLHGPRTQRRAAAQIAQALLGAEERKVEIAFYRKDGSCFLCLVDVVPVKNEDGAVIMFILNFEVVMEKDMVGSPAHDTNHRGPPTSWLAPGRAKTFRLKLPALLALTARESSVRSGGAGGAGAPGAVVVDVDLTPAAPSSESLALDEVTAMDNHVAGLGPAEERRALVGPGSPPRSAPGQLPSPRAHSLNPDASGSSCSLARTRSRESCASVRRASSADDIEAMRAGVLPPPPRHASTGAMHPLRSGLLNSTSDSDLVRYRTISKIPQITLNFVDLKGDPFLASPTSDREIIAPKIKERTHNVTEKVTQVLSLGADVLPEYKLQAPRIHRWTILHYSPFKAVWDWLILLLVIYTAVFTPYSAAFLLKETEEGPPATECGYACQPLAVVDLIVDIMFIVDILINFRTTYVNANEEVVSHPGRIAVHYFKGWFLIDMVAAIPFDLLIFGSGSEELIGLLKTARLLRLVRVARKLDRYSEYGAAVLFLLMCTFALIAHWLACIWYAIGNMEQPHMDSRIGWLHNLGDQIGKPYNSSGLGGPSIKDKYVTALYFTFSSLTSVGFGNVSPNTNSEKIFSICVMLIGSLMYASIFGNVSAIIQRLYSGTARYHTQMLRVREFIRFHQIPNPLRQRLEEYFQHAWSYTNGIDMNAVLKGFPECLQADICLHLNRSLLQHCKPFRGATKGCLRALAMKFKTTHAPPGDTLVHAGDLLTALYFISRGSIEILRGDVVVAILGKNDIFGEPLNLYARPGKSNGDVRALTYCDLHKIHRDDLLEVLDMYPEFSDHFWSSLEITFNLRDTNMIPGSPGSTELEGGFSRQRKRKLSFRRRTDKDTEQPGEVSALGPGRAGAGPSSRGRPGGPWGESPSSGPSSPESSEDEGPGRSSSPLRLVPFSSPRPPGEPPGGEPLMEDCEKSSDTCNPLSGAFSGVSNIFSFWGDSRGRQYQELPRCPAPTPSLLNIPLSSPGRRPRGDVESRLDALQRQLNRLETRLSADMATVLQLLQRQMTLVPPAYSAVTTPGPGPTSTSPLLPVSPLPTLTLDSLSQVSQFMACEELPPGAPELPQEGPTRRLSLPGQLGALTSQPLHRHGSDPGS
For the molecule `O=[N+]([O-])c1cccc(/C=C/c2ccncc2)c1`, the “hERG current change (%, negative = inhibition) at 1uM” value turned out to be 5.04%.
In the case of `CCC1NC(=O)c2cc(S(N)(=O)=O)c(Cl)cc2N1` (stereo not drawn) it was 13%; in that of `Cc1c(C)n(C)c2ccc(C(=O)NCCCN3CCCCC3C)cc12` (stereo not drawn), 6%.
In the case of `N#CC1=C(N)N(c2ccccc2)C2=C(C(=O)CCC2)C1c1ccccc1` (stereo not drawn) it was -4.06%.
For the molecule `COc1ccc(NC(=O)C2CCCN(C(=O)Nc3ccc(F)cc3)C2)cc1` (stereo not drawn), the “hERG current change (%, negative = inhibition) at 1uM” value is given as 6%.
For the molecule `CCCN(CCC)CCCNC(=O)c1ccc2c(c1)N(CC)C(=O)c1ccccc1S2=O` (stereo not drawn), the “hERG current change (%, negative = inhibition) at 1uM” value was -10.9%.
For the molecule `COc1ccc(C(C)=O)cc1COC(=O)C1CC(=O)N(Cc2ccccc2)C1` (stereo not drawn), the “hERG current change (%, negative = inhibition) at 1uM” value is 9.83%.
To `CCOC(=O)N/N=C/c1ccccc1F` belongs 2.04%.
To `CC(C)C(=O)N=C1NC(=O)CS1` belongs 17.8%.
For `Cc1ccc(-c2cc(-c3ccccc3)nc(N/N=C/c3cccnc3)n2)cc1`, the “hERG current change (%, negative = inhibition) at 1uM” value worked out at 15.2%.
Take `CCc1ccccc1N(CC(=O)NCc1ccco1)C(=O)CCC(=O)Nc1nccs1`: the “hERG current change (%, negative = inhibition) at 1uM” value was determined as 11.6%.
In the case of `COc1ccnc(Oc2ccccc2)c1C(=O)N/C=N/OCc1ccccc1`, the “hERG current change (%, negative = inhibition) at 1uM” value is reported as 24.6%.
In the case of `Nc1ccc(CCC(=O)N2CCCC2)cc1` it was 17.5%; in that of `CCn1c(=O)n(CC)c2cc(N3CCCC3)c(NC(=O)c3c(F)cccc3F)cc21`, 7.53%.
To `Cc1ccc(Nc2nc(N)nc(CCl)n2)cc1` belongs 13.2%; to `CCC(=O)OC1(c2cccc(C)c2)CC(C)N(C)CC1C.Cl` (stereo not drawn), -6.92%.
In the case of `CSc1nsc(SCC(=O)Nc2ccc(F)cc2F)n1` it was 3.68%; in that of `CCC1(CC)C(=O)C2=C3C1[C@H](C(=O)OC)C=C(C(=O)OC)C[C@H]3n1c(=O)n(C)c(=O)n1[C@H]2C` (stereo partly drawn), 19.5%; in that of `CCCOc1ccc(-c2nnn(CC(=O)N3CCC(C)CC3)n2)cc1`, 9.34%.
For the molecule `CC(=O)c1cccc(NC(=O)CN2C=NS(=O)(=O)c3ccc(C)cc32)c1`, the “hERG current change (%, negative = inhibition) at 1uM” value is given as 2.59%.
As to `COc1ccc2sc(N(CCCN(C)C)C(=O)c3ccc(S(=O)(=O)N4CCc5ccccc5C4)cc3)nc2c1.Cl`, the “hERG current change (%, negative = inhibition) at 1uM” value is on record as 3.91%.
`Cc1ccc(NC2=C(Cl)C(=O)OC2OC(=O)c2ccco2)c(C)c1` (stereo not drawn): the “hERG current change (%, negative = inhibition) at 1uM” value stood at 11%.
In the case of `S=c1[nH]nc(CSCc2ccc(Cl)cc2Cl)n1-c1ccccc1` it was -3.59%; in that of `CCOC(=O)c1ccc(NC(=O)N2CCN(C3CCCCC3)CC2)cc1`, -0.154%.
In the case of `Cc1cccc(N/C(N)=N/c2nc(C)cc(C)n2)c1` it was 6.77%; in that of `COc1ccc(CCNC(=O)c2nnc(Cc3c(F)cccc3Cl)o2)cc1OC`, 10.8%; in that of `CCOc1ccc(OCC(=O)OCC(=O)N2CCN(C(=O)c3ccco3)CC2)cc1`, 4.2%.
In the case of `CC1CC(C)CN(C(=S)Nc2ccc(OC(F)F)cc2)C1` (stereo not drawn) it was -45.1%; in that of `COc1ccc(NC(=O)CSc2nnc(-c3ccccc3C)n2N)cc1`, 21.3%; in that of `CCOC(=O)CSc1nc2c(sc(=S)n2-c2ccccc2)c(=O)n1-c1ccc(OC)cc1OC`, 24.2%.
Regarding `N#C/C(=C\c1cccs1)C(=O)NCc1ccccc1`, the “hERG current change (%, negative = inhibition) at 1uM” value turned out to be 8.46%.
To `CC(OC(=O)CNC(=O)c1ccc(F)cc1)C(=O)Nc1ccc(S(=O)(=O)N2CCOCC2)cc1` (stereo not drawn) belongs 0.716%.
As to `O=C(COc1ccccc1F)N1CCN(CCN2C(=O)c3cccc4cccc(c34)C2=O)CC1`, the “hERG current change (%, negative = inhibition) at 1uM” value was -17.5%.
Consider `O=P(COCCCCCOCP(=O)(c1ccccc1)c1ccccc1)(c1ccccc1)c1ccccc1`, for which the “hERG current change (%, negative = inhibition) at 1uM” value is given as -2.19%.
In the case of `COc1ccccc1/C=N/NC(=O)CC(=O)NCc1ccccc1` it was 3.35%; in that of `C=CCOc1c(CNc2ccc(C(=O)O)cc2)cccc1OC`, 9.62%.
In the case of `O=C(CCC(=O)N1CCOc2ccccc21)NC1CCN(Cc2ccccc2)CC1` it was -12.3%.
Regarding `Nc1ncnc2c1ncn2[C@H]1C[C@H](O)[C@@H](CO)O1.O`, the “hERG current change (%, negative = inhibition) at 1uM” value is given as 15.1%.
With `C=CCn1cc(C(=O)OCC)c(=O)c2cc(F)c(F)cc21`, the “hERG current change (%, negative = inhibition) at 1uM” value came out at 9.97%.
To `CCN(CC(=O)Nc1cc(OC)ccc1OC)Cc1nc2ccccc2c(=O)[nH]1` belongs 14%; to `CC(Cc1ccccc1)C(=O)N[C@@H](CO)Cc1ccccc1` (stereo partly drawn), 16.5%; to `COc1ccc(C2CC(c3cccc(C)c3)n3ncnc3N2)cc1` (stereo not drawn), -2.29%.
To `NC(=O)c1ccc(NC(=O)COC(=O)c2ccc([N+](=O)[O-])cc2)cc1` belongs 0.696%; to `O=[N+]([O-])c1ccc(CSc2nnc(-c3cccnc3)o2)cc1`, 12.6%.
To `Cc1cccc(C)c1NC(=O)CN(C)C(=O)CSC(=S)N1CCCC1` belongs 24.1%.
Consider `O=C1OCCC1Sc1nc2ccccc2n1-c1ccccc1` (stereo not drawn), for which the “hERG current change (%, negative = inhibition) at 1uM” value is listed as -2.37%.
In the case of `O=C(NNc1c(Cl)cccc1Cl)C1CCC1` it was 13.3%; in that of `O=C(COc1ccc([N+](=O)[O-])cc1)Nc1ccncc1`, -3.3%; in that of `Cc1cc(C)nc(SCc2cc(=O)c(OC(=O)c3cccc([N+](=O)[O-])c3)co2)n1`, 11.9%.
With `CN(Cc1ccccc1)C(=O)CCNC(=O)Cn1cnc2ccccc2c1=O`, the “hERG current change (%, negative = inhibition) at 1uM” value was 1.46%.
To `COCCOC(=O)C1=C(C)Nc2nc(C)nn2C1c1ccc(F)cc1` (stereo not drawn) belongs 1.93%; to `CCc1ccc(/C=N/Nc2ncnc3nc[nH]c23)cc1`, 0.85%; to `Cc1ccnc(NC(=O)C2CCN(S(=O)(=O)c3ccc(C)c(C)c3)CC2)c1`, 5.56%.
Regarding `CN1CCN(NC(=O)c2cn(-c3ccccc3)nc2-c2cccs2)CC1.Cl`, the “hERG current change (%, negative = inhibition) at 1uM” value is 9.3%.
Consider `O=C(c1cc(C2CC2)on1)N1CCCC(N2CCN(c3ccc(F)cc3)CC2)C1` (stereo not drawn), for which the “hERG current change (%, negative = inhibition) at 1uM” value was -16.9%.
To `CC(C)c1ccccc1OCCCCCNCCO` belongs 5.01%; to `Cc1sc2ncn(CC(=O)N3CCCC(C)C3)c(=O)c2c1S(=O)(=O)N1CCCCC1` (stereo not drawn), 11%; to `Cc1sc2ncnc(SCC(=O)N3c4ccccc4Sc4ccc(Cl)cc43)c2c1C`, 0.204%.
In the case of `O=C(CCC1CCCCC1)NCCN1C2=NC[C@H](Cc3ccc(O)cc3)N2C[C@H]1Cc1ccc(O)cc1` it was 12.5%.
To `Cc1cnc(NC(=O)c2cc3c(s2)CCCC3)s1` belongs 6.25%.
Regarding `COc1cc(OC)c(NC(=S)NCc2ccccc2)cc1Cl`, the “hERG current change (%, negative = inhibition) at 1uM” value is reported as 4.01%.
In the case of `CCOC(=O)Cn1c(=O)oc2cc(S(=O)(=O)N3CCN(C(=O)OCC)CC3)ccc21` it was -2.31%; in that of `Cc1nc(SC(C)C)[nH]c(=O)c1Cc1ccccc1`, -5.58%; in that of `O=C(CN1CCCC1)Nc1cc(C(F)(F)F)ccc1Cl`, 9.23%.
`CC(C)n1c(NCc2cc(Cl)ccc2O)nc2ccccc21`: the “hERG current change (%, negative = inhibition) at 1uM” value is listed as 16.2%.
To `Cc1cccc(NC(=O)Cn2nc([N+](=O)[O-])c(Br)c2C)n1` belongs 11.4%; to `CCN(CC)C(=O)Cn1cnc2sc(C(=O)N3CCN(c4ccc(OC)cc4)CC3)c(C)c2c1=O`, 19.5%.
As for `O=C1OC(c2ccc(Br)cc2)=N/C1=C\N1CC2CC(C1)c1cccc(=O)n1C2` (stereo not drawn), the “hERG current change (%, negative = inhibition) at 1uM” value is listed as -4.83%.
To `CCn1c(O)c(C=Nc2ccc(S(N)(=O)=O)cc2)c(=O)n(CC)c1=S` belongs 0.499%.
For `CCOc1ccc(N2C(=O)CN=C2Nc2ccccc2Cl)cc1`, the “hERG current change (%, negative = inhibition) at 1uM” value was determined as 5.98%.
In the case of `O=C(Cc1cc(=O)[nH]c(=O)[nH]1)NCc1ccccc1`, the “hERG current change (%, negative = inhibition) at 1uM” value came to 3.51%.
With `Cc1cc(C)n(CCC(=O)N/N=C/c2ccc(Cl)c([N+](=O)[O-])c2)n1`, the “hERG current change (%, negative = inhibition) at 1uM” value was 4.96%.
To `CCc1noc(C)c1C(=O)NNC(=O)COc1ccc(Br)cc1` belongs 16.3%.
With `CCc1nnc(NC(=O)c2ccc(-c3cc(C(F)(F)F)ccc3Cl)o2)s1`, the “hERG current change (%, negative = inhibition) at 1uM” value is listed as 10.2%.
Consider `Cc1cc(=O)oc2cc3oc(=O)cc(C)c3cc12`, for which the “hERG current change (%, negative = inhibition) at 1uM” value amounted to 14.1%.
Take `O=c1[nH]c(-c2ccc(Cl)cc2)nc(=S)[nH]1`: the “hERG current change (%, negative = inhibition) at 1uM” value is on record as 12.3%.
In the case of `CC1(C)NC(=O)N(CC(=O)OCC(=O)Nc2sccc2C#N)C1=O` it was 3.31%.
For `O=C(CSCc1c(Cl)cccc1Cl)NCC1CCCO1` (stereo not drawn), the “hERG current change (%, negative = inhibition) at 1uM” value was found to be 14.7%.
For `COc1ccc(CNC(=O)CN(C(=O)CCC(=O)Nc2nccs2)c2ccc(C)cc2)cc1`, the “hERG current change (%, negative = inhibition) at 1uM” value is 15.9%.
To `COc1ccc(NC(=O)CC2SC(=N)N(c3ccccc3)C2=O)c(OC)c1` (stereo not drawn) belongs 11%.
To `O=C(O)C1Nc2c(C(=O)N3CCOCC3)cccc2C2C=CCC12` (stereo not drawn) belongs 8.6%.
In the case of `CCN(C(=O)COC(=O)CSc1ccc([N+](=O)[O-])cc1)C1CCS(=O)(=O)C1` (stereo not drawn) it was 7.04%.
For `CCOc1ccc(-n2c([O-])cc(=O)[nH]c2=O)cc1.[NH4+]`, the “hERG current change (%, negative = inhibition) at 1uM” value was determined as 13.9%.
In the case of `Cc1sc(N/N=C/c2cccnc2)nc1-c1ccccc1`, the “hERG current change (%, negative = inhibition) at 1uM” value stood at 11.9%.
With `CSc1ccccc1NC(=S)N/N=C/c1cccn1Cc1cccc(C)c1`, the “hERG current change (%, negative = inhibition) at 1uM” value was found to be 6.42%.
As to `O=C1C(Cl)=C(N2CCOCC2)C(=O)N1c1ccccc1Cl`, the “hERG current change (%, negative = inhibition) at 1uM” value was -2.9%.
For the molecule `COCCNC(=O)NC(=O)COC(=O)c1cccn1C`, the “hERG current change (%, negative = inhibition) at 1uM” value was 8.04%.
For `Cl.OCCNc1nc(N2CCN(Cc3ccccc3)CC2)nc2ccccc12`, the “hERG current change (%, negative = inhibition) at 1uM” value was -28.6%.
For `Cc1ccc(CNC(=O)CCNC(=O)N2CCn3c2nc2ccccc23)cc1`, the “hERG current change (%, negative = inhibition) at 1uM” value is 0.827%.
In the case of `COc1ccc(C(=O)Nc2ccccn2)cc1S(=O)(=O)N1CCOCC1` it was 11.8%.
